Measurements from the supplement of paper PMC3334620.
The full ranking holds about 33,000 sequences; the median of “E-score (-0.5 to 0.5)” is about -0.016, and the highest 2% start at about 0.31. Some of the results follow.

Each sequence was assayed against Cst6 (UniProt P40535) (assay: PBM E-score (8-mer binding enrichment) (E-score (-0.5 to 0.5)); higher = stronger / more preferred TF binding; most listed sequences are background and not binding sites). Conditions: protein concentration: 200 nM; construct: GST-DNA-binding domain.
In short: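 Masliner-normalised scans of fluorescent anti-GST signal were the basis for scoring. That signal came from GST-tagged yeast transcription factors applied at about 100-200 nM to double-stranded universal all-10-mer Agilent arrays on fresh or once-stripped slides. Each ungapped eight-base word, pooled with its reverse complement, received an E-score from the Universal PBM Analysis Suite.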

Sequence	PBM E-score
TAAAAAGA	0.204
ACGTGCGC	0.174
CAACGCCA	-0.0134
TTCCCAAA	0.0034
CATGCTGA	0.042
ATACGAGC	-0.00904
CATACTGG	-0.097
GTTCTGTA	0.0269
ACTTCAGG	-0.105
AGAACATA	0.0483
AAGGAACG	-0.036
ATCATACG	0.308
AGCCGCCG	0.155
ATACTGAA	0.115
AACACCTG	0.0999
CGTTGACC	0.0608
GAAGCATC	-0.145
CCAATGGA	-0.152
CAGCTGGC	-0.0549
CTTAACGC	-0.0467
ACCCCAGG	-0.327
CTGGAACC	-0.193
AACCAGCT	0.0683
AGTCAGAT	-0.0377
AGGCTATG	-0.166

Sequence	PBM E-score
CGTGATTA	0.196
GAGTTAAC	-0.0651
CCAGGCGC	-0.0802
ACGACGAC	-0.0559
GAACATCA	-0.098
GCTCGTCC	-0.154
ATGTGTAA	0.0549
CAGTGCGC	-0.299
ACATGTTA	0.114
CTAGTATC	-0.0254
AACATACT	0.0822
CATAAGCA	-0.0945
TAACACCA	0.143
CTATATGC	0.00303
CGACGCTA	-0.0616
AGCCGAGG	-0.081
AATTTGAA	0.0886
GATCTAGC	-0.152
CCGATAAG	-0.0428
TCTCGAGA	-0.0075
AGGTCTAT	-0.123
AGATCAAT	0.0915
GCTTATAA	0.153
ACCGCAGA	-0.141
CTCACGAC	-0.0959

Sequence	PBM E-score
AAGGCTGG	-0.148
CCCAAAAG	-0.0807
AGTGGAGA	-0.00399
ATAGTGGC	-0.0079
ATAGGGGG	-0.398
ACGACAGT	0.0713
AATACTCA	0.185
TACGCGCA	0.0423
AGTCTGGC	-0.297
CGAACATC	-0.027
GTCCCAGA	-0.299
CCCGTGCA	-0.125
CCTCAGAG	-0.248
AGCCTTAG	-0.0338
AGGTGTGC	-0.206
ACATTATG	0.221
GATTGAAA	0.163
CTATCTGA	-0.217
GCCGTCGC	0.0532
ACGCTTTA	-0.136
TAATCTGA	0.146
CGATTTCC	-0.0257
CAGGTCAC	-0.192
GGCAGATA	-0.0889
CCCACCGA	-0.131

Sequence	PBM E-score
GTAGTACA	-0.0107
ATCACGAT	0.162
ACGCTAAG	-0.08
GGACAGGA	-0.186
ATCGAAGG	0.0082
GTGTGAAA	0.259
AACTTGAG	-0.263
ATGTGCTA	0.0373
AGTAACTC	-0.0124
GTCCCACA	-0.0855
CATCCACA	-0.0043
CGACCATC	-0.247
GGTGAAAC	0.0242
TCAGATCA	0.115
GTACGAGA	-0.0827
ACATGACC	0.007
AGTAAGAC	0.0965
GAAACTCC	-0.395
CTTTTATC	0.0238
ATTTCGAA	0.175
CTTGTCCC	0.00557
CAGGCGAC	-0.0995
AGTGTGGG	-0.0648
GGCGATTA	0.188
AGCAAAGG	0.0127

Sequence	PBM E-score
AATGCTAA	0.0492
ACGCAGAG	0.018
GGTTAAGA	-0.0367
ATCTCGTA	0.194
AACGGAGT	0.0494
ACGTAAGC	0.381
CGAGGTGC	-0.0095
GCTAGCTA	0.0346
GGTTAGAA	-0.139
TACTAGAA	0.149
AGCAAATA	0.113
GGCTCTAA	0.0964
CAAGGGTC	-0.169
CGTAACGC	0.185
AGGTCAAG	-0.0961
CCCGCTTA	-0.00656
GCAGCTCC	-0.303
CAGCCATG	-0.16
GTTGCGTA	0.264
CGAAATAC	0.194
AAGCTATA	0.0756
CGGTATTC	-0.0796
AAAGTTAT	0.281
CCAGATAG	-0.0711
GGTATGAA	-0.046

Sequence	PBM E-score
GGGTTGCA	-0.0507
AAGATTGC	-0.107
CTGCGTGA	0.119
ATTATATC	0.327
GAGCCCAA	-0.126
CATGCACC	-0.112
CTCGAGTC	-0.0069
ATGGAGAC	-0.141
TGAGCAAA	0.158
AGAACGCA	0.0192
TCGATCAA	-0.0743
CCAAGGAC	-0.224
CAAGCTGC	-0.0411
CAATAACA	0.0661
AGTGCTAC	-0.113
AGAATTGC	0.119
CCTACATC	-0.0998
GCTCATCA	0.213
ACAGACAC	-0.141
CGTGCTTA	0.147
ACTATTCT	0.00306
GCCATCCC	-0.176
CTCGCGTC	0.0721
CAATATAC	-0.0952
AGTTGACA	0.191

Sequence	PBM E-score
CCGGCGTC	-0.0641
ACCGCATA	0.0851
ACACCGAT	-0.234
CTCGTATC	0.0118
CAACAGTC	-0.0748
CGGTTTCC	-0.109
AATCACGA	-0.0788
CCCTAGGA	-0.295
AGGTACAT	0.00924
TTAGATAA	0.129
CGTGCATA	0.12
GACATCGC	-0.0367
ATAAGGTG	0.237
ATGGTCCA	-0.234
TCGGACAA	0.0914
GAATTATC	0.253
CACAAAAC	0.116
CCCCATCC	-0.192
ATGTCCGC	-0.093
CTGTCTGA	-0.0872
TCTGTCAA	0.111
GCCAAACC	-0.267
GTGAGACA	-0.00295
ATCCTATC	-0.0914
ATAGGAAA	0.186

Sequence	PBM E-score
AGTCCTTC	-0.416
ATAATTTC	0.212
GCTCCTCA	-0.202
AGTCAGTA	0.0551
TATACTCA	0.142
CCGAAGAA	-0.024
ACGAACCC	-0.163
AGTCAGTC	-0.0902
GAGCTAAC	0.02
AATTCCGG	-0.139
ACCCCAAT	-0.088
GCCGGCCA	-0.126
ACTCAACC	0.0398
CGATGCCG	0.0247
CCCATCCA	-0.135
CAAAGCAA	0.128
CGAGCGGC	0.0772
AACTTCAA	0.127
ATAAAACC	0.037
CTACGCGA	-0.112
ATAAGAGA	0.217
GTGAAATA	0.0961
ATACATAG	0.108
CATGACAG	0.118
AACCAATC	0.0677

Sequence	PBM E-score
AAGCGAGC	-0.164
TGGACCCA	-0.163
GGACACCC	-0.391
GCAAGCGC	-0.112
AAATGAGT	0.183
ACGAAAGT	0.218
GGAAAGTA	0.0506
CCCGTCAG	-0.282
AACTGTGA	0.147
ACCCCTCA	-0.295
TCACGGGA	0.0436
AGATACAT	0.168
TGACAAAA	0.337
TGCGCCCA	-0.17
GGACAACA	-0.0829
ACCTTCGA	-0.0936
ACACGACT	-0.0344
CATCGCAA	-0.0967
GAACCTGA	-0.0356
CAGCTTAA	0.03
ACCGTTGC	-0.2
CGAGCTAC	-0.125
TACGGTCA	0.215
AGGTTGCG	0.0119
ATGCGATC	0.0491

Sequence	PBM E-score
CATTAATC	0.128
GGAGGTCA	-0.151
AGGACCAT	-0.216
GATCATAA	0.196
AAACATAC	0.0968
AGTCCTAC	-0.131
TCGCGGCA	-0.0207
CCTACGGC	0.143
CACGACTG	-0.279
AATTATAA	0.232
TACCTTGA	0.0359
ATACCGAT	-0.154
TAAGAAGA	0.181
AAAGATGC	0.0117
ACCATACT	-0.0819
CGACTCCC	-0.227
GCGAACCA	-0.0341
CCACGCAG	-0.101
ATGAAAGG	0.0131
GAGGCGCA	0.00503
AAGTGCGC	-0.0105
GTATAAAC	0.138
CATAAGAA	0.342
GGAGCCTA	-0.15
CTAATAGC	0.0253

Sequence	PBM E-score
AAATAGGC	-0.00092
ATGTCAAG	0.235
AGTATGGG	-0.162
TAAATGGA	0.0559
GAAGACCC	-0.364
CCCAAATA	-0.0284
AGCCACGC	-0.0993
AAGTTCCA	-0.112
ATAGTTTG	0.127
CAAGGGCC	-0.295
AATCCTAG	-0.0277
GCCTTGAA	-0.0118
GCGGTTTA	-0.0357
ATGCGATA	0.0301
ATGCGAGG	0.101
CCCGCAGA	-0.209
AAAACCCC	-0.213
TCTACACA	0.004
TCCCCCCA	-0.363
CAAATGAA	0.164
ATGGCTCC	-0.0769
CCCGGTCG	-0.297
AGCTAGAA	-0.0798
AGCTGAGA	-0.101
CAGCAACG	0.161

Sequence	PBM E-score
GGACGACC	-0.371
AAACGTTC	-0.0497
GAGGCTCC	-0.0639
TAAAGTTA	0.271
CCGCGACC	-0.186
AAATTGCC	0.13
CATGAATC	-0.0462
AATCGTAA	0.203
CCAGCATC	-0.0759
GAGACCGC	-0.344
CGCTTGTC	-0.0184
GTGCTGTA	-0.0544
CTACCCCA	-0.16
CTGATCTA	0.0245
AGCAGCGG	-0.265
ACCGCTCT	-0.134
AATACCAT	0.159
GGAAGACA	-0.0844
TAGTCATA	0.124
AAAAGGTA	-0.0898
ACTCCGAA	-0.169
ACTATTAG	0.092
CATGTAAA	0.141
ATAAAGAA	0.259
AGGAGTGG	-0.122

Sequence	PBM E-score
CACTAGGC	-0.0803
CACCAAAA	0.236
ACTACGGA	-0.205
AACACTGC	0.0554
ATTCAAGC	0.0974
TCTGGTCA	0.0204
CAATCATA	0.209
TAAGGGCA	0.00599
ATCGGTAG	-0.028
ACCAGGGC	-0.213
GATAAAAC	0.211
TACCCGGA	0.0384
CCGAGTCA	-0.0552
CCAATGGC	-0.188
AGTCAGCC	-0.185
CCCGTGGA	-0.192
CCCCCCAA	-0.336
GAGGAACA	0.0789
CCGCCGTA	0.0871
CTGTGACC	-0.0661
GCGCCTAC	0.136
ACACGCAT	-0.0164
CACCAAAC	0.17
ATTACTTG	0.097
ATGCGCTG	-0.197

Sequence	PBM E-score
GATCCTTA	0.027
AGAAGGCG	-0.102
CTGGATCC	-0.176
GGGTGGGA	-0.0454
AATACGGT	-0.0647
GAACTCTC	-0.246
ACCAGTTG	-0.103
TCCCTGAA	0.0505
CTAGTCTA	-0.126
AACTCTAT	-0.057
AAATTCGT	0.306
CCCGGTAA	-0.166
ACTACTAA	0.0433
AATCTTTA	0.163
AAAAGCTC	0.0384
CGTGTAAA	0.173
CCTTGGTC	-0.259
CTATAGAG	-0.112
CGCCACGC	-0.0927
